Measurements as given in the supplement of paper PMC12217912.
Some of the results follow. The full chains were built here from the parent and the listed change. Values near 0.05 are background.

B1: TEV protease; numbered along this chain (parent)
chain: MGESLFKGPRDYNPISSSICHLTNESDGHTTSLYGIGFGPFIITNKHLFRRNNGTLVVQSLHGVFKVKDTTTLQQHLVDGRDMIIIRMPKDFPPFPQKLKFREPQREERICLVTTNFQTKSMSSMVSDTSCTFPSGDGIFWKHWIQTKDGQCGSPLVSTRDGFIVGIHSASNFTNTNNYFTSVPKNFMELLTNQEAQQWVSGWRLNADSVLWGGHKVFMVKPEEPFQPVKEATQL

Variants of: B1
Test: raw area under fraction-flipped curve 0-4 h after induction (AUC4h, not background-subtracted), DNA-recorder readout of cleavage of the substrate (dimensionless); higher = more cleavage of the substrate by the protease variant
Conditions: temperature: 34 °C; time window: 0-4 h after rhamnose induction
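Note: Bxb1 expression induced with 0.2% (w/v) L-rhamnose at OD600 near 0.5, cultures sampled hourly, flipped fraction per protease–substrate barcode pair counted by paired-end Illumina sequencing.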

Row | Variant | area with substrate EALYFQS | area with substrate ECLYFQS | area with substrate EDLYFQS | area with substrate EELYFQS | area with substrate EGLYFQS | area with substrate EILYFQS | area with substrate EQLYFQS | area with substrate ERLYFQS | area with substrate ESLYFQS | area with substrate EHLYFQS | area with substrate EKLYFQS | area with substrate ELLYFQS | area with substrate EMLYFQS | area with substrate EPLYFQS | area with substrate EVLYFQS | area with substrate EWLYFQS | area with substrate EYLYFQS | area with substrate EFLYFQS | area with substrate ETLYFQS
1 | MGESLFKGPRDYNPISSSICHLTNESDGHTTSLYGIGFGPFIITNKHLFRRNNGTLVVQSLHGVFKVKDTTTLQQHLVDGRDMIIIRMPKDFPPFPQKLKFREPQREERICLVTTNFQTKSMSSMVSDTSCTFPSGDGIFWKHWIQTKDGQCGSPLVSTRDGFIVGIHSASNFTNTNNYFTSVPKNFMELLTNQEAQQWVSGWRLNADSVLWGGCKVFMVKPEEPFQPVKEATQL [H215C] | 0.0735 | 0.068 | 0.0893 | 0.0756 | 0.0703 | 0.0667 | 0.0812 | 0.03 | 0.082 | – | – | – | – | – | – | – | – | – | –
2 | MGESLFKGPRDYNPISSSICHLTNESDGHTTSLYGIGFGPFIITNKHLFRRNNGTLVVQSLHGVFKVKDTTTLQQHLVDGRDMIIIRMPKDFPPFPQKLKFREPQREERICLVTTNFQTKSMSSMVSDTSCTFPSGDGIFWKHWIQTKDGQCGSPLVSTRDGFIVGIHSASNFTNTNNYFTSVPKNFMELLTNQEAQQWVSGWRLNADSVLWGGHKCFMVKPEEPFQPVKEATQL [V217C] | 0.0926 | 0.108 | 0.0929 | 0.112 | 0.117 | 0.0988 | 0.0978 | 0.0921 | 0.0908 | 0.0965 | 0.0886 | 0.11 | 0.1 | 0.111 | 0.0909 | 0.0947 | 0.102 | – | –
3 | MGESLFKGPRDYNPISSSICHLTNESDGHTTSLYGIGFGPFIITNKHLFRRNNGTLVVQSLHGVFKVKDTTTLQQHLVDGRDMIIIRMPKDFPPFPQKLKFREPQREERICLVTTNFQTKSMSSMVSDTSCTFPSGDGIFWKHWIQTKDGQCGSPLVSTRDGFIVGIHSASNFTNTNNYFTSVPKNFMELLTNQEAQQWVSGWRLNADSVLWGGHKPFMVKPEEPFQPVKEATQL [V217P] | 0.0577 | 0.0544 | 0.0496 | – | 0.054 | 0.0525 | 0.0542 | – | 0.0618 | 0.0695 | 0.0633 | 0.0575 | 0.0648 | 0.0669 | 0.0518 | 0.0664 | 0.0663 | – | –
4 | MGESLFKGPRDYNPISSSICHLTNESDGHTTSLYGIGFGPFIITNKHLFRRNNGTLVVQSLHGVFKVKDTTTLQQHLVDGRDMIIIRMPKDFPPFPQKLKFREPQREERICLVTTNFQTKSMSSMVSDTSCTFPSGDGIFWKHWIQTKDGQCGSPLVSTRDGFIVGIHSASNFTNTNNYFTSVPKNFMELLTNQEAQQWVSGWRLNADSVLWGGHKVFSVKPEEPFQPVKEATQL [M219S] | 0.094 | 0.0984 | 0.0992 | 0.117 | 0.0739 | 0.0794 | 0.11 | 0.127 | 0.096 | 0.0974 | 0.111 | 0.106 | 0.118 | – | 0.0916 | 0.0883 | – | – | –
5 | MGESLFKGPRDYNPISSSICHLTNESDGHTTSLYGIGFGPFIITNKHLFRRNNGTLVVQSLHGVFKVKDTTTLQQHLVDGRDMIIIRMPKDFPPFPQKLKFREPQREERICLVTTNFQTKSMSSMVSDTSCTFPSGDGIFWKHWIQTKDGQCGSPLVSTRDGFIVGIHSASNFTNTNNYFTSVPKNFMELLTNQEAQQWVSGWRLNADSVLWGGHKVFMMKPEEPFQPVKEATQL [V220M] | 0.12 | 0.0918 | 0.162 | – | 0.0672 | 0.113 | 0.0972 | – | 0.108 | – | 0.0955 | 0.0938 | 0.111 | 0.11 | 0.104 | 0.0773 | 0.126 | 0.12 | –
6 | MGESLFKGPRDYNPISSSICHLTNESDGHTTSLYGIGFGPFIITNKHLFRRNNGTLVVQSLHGVFKVKDTTTLQQHLVDGRDMIIIRMPKDFPPFPQKLKFREPQREERICLVTTNFQTKSMSSMVSDTSCTFPSGDGIFWKHWIQTKDGQCGSPLVSTRDGFIVGIHSASNFTNTNNYFTSVPKNFMELLTNQEAQQWVSGWRLNADSVLWGGHKVFMWKPEEPFQPVKEATQL [V220W] | 0.136 | 0.1 | 0.121 | 0.103 | 0.0908 | 0.0922 | 0.104 | 0.0802 | 0.1 | 0.094 | 0.0739 | 0.0626 | 0.0956 | 0.085 | 0.0448 | 0.0837 | – | – | 0.109
7 | MGESLFKGPRDYNPISSSICHLTNESDGHTTSLYGIGFGPFIITNKHLFRRNNGTLVVQSLHGVFKVKDTTTLQQHLVDGRDMIIIRMPKDFPPFPQKLKFREPQREERICLVTTNFQTKSMSSMVSDTSCTFPSGDGIFWKHWIQTKDGQCGSPLVSTRDGFIVGIHSASNFTNTNNYFTSVPKNFMELLTNQEAQQWVSGWRLNADSVLWGGHKVFMVFPEEPFQPVKEATQL [K221F] | 0.0965 | 0.0879 | 0.104 | 0.0958 | 0.0732 | 0.0818 | 0.0698 | 0.0786 | 0.0874 | 0.0624 | 0.094 | 0.089 | 0.108 | 0.0935 | 0.077 | 0.0964 | 0.0862 | – | 0.0565
8 | MGESLFKGPRDYNPISSSICHLTNESDGHTTSLYGIGFGPFIITNKHLFRRNNGTLVVQSLHGVFKVKDTTTLQQHLVDGRDMIIIRMPKDFPPFPQKLKFREPQREERICLVTTNFQTKSMSSMVSDTSCTFPSGDGIFWKHWIQTKDGQCGSPLVSTRDGFIVGIHSASNFTNTNNYFTSVPKNFMELLTNQEAQQWVSGWRLNADSVLWGGHKVFMVKDEEPFQPVKEATQL [P222D] | 0.136 | 0.131 | 0.157 | 0.125 | – | 0.0974 | 0.122 | 0.0968 | 0.105 | – | 0.112 | 0.0968 | 0.109 | 0.117 | – | – | – | – | 0.108
9 | MGESLFKGPRDYNPISSSICHLTNESDGHTTSLYGIGFGPFIITNKHLFRRNNGTLVVQSLHGVFKVKDTTTLQQHLVDGRDMIIIRMPKDFPPFPQKLKFREPQREERICLVTTNFQTKSMSSMVSDTSCTFPSGDGIFWKHWIQTKDGQCGSPLVSTRDGFIVGIHSASNFTNTNNYFTSVPKNFMELLTNQEAQQWVSGWRLNADSVLWGGHKVFMVKFEEPFQPVKEATQL [P222F] | 0.0764 | 0.0939 | 0.121 | – | 0.0582 | 0.0906 | 0.0854 | 0.0737 | 0.0795 | 0.0991 | 0.0881 | 0.076 | 0.0822 | 0.112 | 0.0816 | 0.085 | 0.079 | – | –
